Reference: ChEMBL document CHEMBL1201862, “PubChem BioAssay data set” (2004)
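48-hour exposure; five concentrations; linearly interpolated endpoints. GI50: concentration for 50% inhibition of growth.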 Active and inactive are the calls of the source. No stated cut-off is given here; in the data, active = GI50 up to about 1.1 µM and inactive = higher.

The molecules below were run on NCI-H322M (assay: inhibition of tumour cell growth, NCI panel, 48 h).
`CC(C)(C)OC(=O)NCCCCC1NC(=O)[C@@H]2Cc3c([nH]c4ccccc34)C(c3ccccc3)N2C1=O` (some centres not stated) was tested, and the GI50 was inactive: 41.7 µM. With `O=[N+]([O-])c1cccc(CSc2nc(O)c3nc[nH]c3n2)c1` the GI50 was inactive: > 100 µM. `CCOC(=O)C(NC(=O)CC)(Nc1ccc(S(=O)(=O)Nc2ncccn2)cc1)C(F)(F)F` (configuration not stated) was tested, and the GI50 was inactive: > 100 µM. In the case of `O=C1CC(=O)N(CCc2ccccc2)S(=O)(=O)N1CCc1ccccc1`, the GI50 is reported as inactive: 30.7 µM. `Nc1nc(-c2cccnc2)cc(-c2cc(-c3cccnc3)nc(N)n2)n1` was tested, and the GI50 was inactive: > 100 µM. For `N#Cc1c(-c2ccc(Cl)cc2)c(-c2ccc(Cl)cc2)nn(CCOC(=O)CCC(=O)O)c1=O`, the GI50 was active: 0.897 µM. With `Cc1cc(Br)cc(C)c1NC(=O)C(=O)C1C(=O)C(CC2C(=O)c3ccccc3C2=O)C(=O)CC1(C)C` (configuration not stated) the GI50 was inactive: > 100 µM. With `CC(C)(C)C=C=C(C(C)(C)C)P(=O)(O)O` the GI50 was inactive: > 100 µM. `C[C@]12CCC(=O)C=C1C[C@@H](O)[C@@H]1[C@@H]2CC[C@@]2(C)[C@H]1CC[C@]2(C)O` was tested, and the GI50 was inactive: > 100 µM. For `CCO/C=C/C(C)C1(C(=O)OCC)CCCCC1=O` (configuration not stated), the GI50 was inactive: > 100 µM. For `S=C(N/N=C/c1ccccn1)N1CCCCC1`, the GI50 was active: < 0.01 µM. In the case of `C1CSCCSCCS1`, the GI50 is reported as inactive: > 100 µM. In the case of `Cc1ccc(N/C(SCc2ccccc2)=C(\C(Cl)=C(Cl)Cl)[N+](=O)[O-])c(C)c1`, the GI50 is reported as inactive: 45.3 µM. With `COc1ccc(N[S+]([O-])c2ccc(OC)cc2)cc1` (configuration not stated) the GI50 was inactive: 26.9 µM. With `O=C1NC(=O)c2ccc([N+](=O)[O-])c3cccc1c23` the GI50 was inactive: 18.6 µM. For `CN1CC2CN(Cc3ccccc3)CCN2c2cccnc21` (configuration not stated), the GI50 was inactive: > 100 µM. In the case of `CCOC(=O)c1cc2ncccc2c2ccccc12`, the GI50 is reported as inactive: > 100 µM. With `[N-]=[N+]=NI1OC(C(F)(F)F)(C(F)(F)F)c2ccccc21` the GI50 was inactive: 17.2 µM. In the case of `CCOC1OC(C)(C=C(C#N)C#N)CCC1C` (configuration not stated), the GI50 is reported as inactive: 67.3 µM. With `O=C(Cc1ccccc1)NN1C(=O)C(Cl)C1c1ccccc1O` (configuration not stated) the GI50 was inactive: 19.6 µM. For `O=C1NC2(CCCCC2)C2CCCCCC12` (configuration not stated), the GI50 was inactive: > 100 µM. `Cc1c(C(=O)O)sc2nc[nH]c(=O)c12` was tested, and the GI50 was inactive: > 100 µM. In the case of `O=C(CSC1=NC(=O)C2(NN1)c1ccccc1-c1ccccc12)NC(=S)Nc1ccccc1`, the GI50 is reported as inactive: > 10 µM. With `NS(=O)(=O)c1c(O)c2ccccc2oc1=O` the GI50 was inactive: > 100 µM. For `CCOC(=O)c1nc2ccccc2nc1Nc1ccc(OC)cc1`, the GI50 was inactive: 69 µM. For `Cc1cccc(C(=O)O)c1CC1NCCC2c3ccccc3NC12` (configuration not stated), the GI50 was inactive: > 100 µM. For `CCOC(=O)C1C(=O)CC(=O)C2CCCCC21` (configuration not stated), the GI50 was inactive: > 100 µM. With `CC(C)C(Nc1ncnc2nc[nH]c12)C(=O)O` (configuration not stated) the GI50 was inactive: > 100 µM. `c1ccc2c3c([nH]c2c1)[C@H]1C2CCCCN2CN1CC3` (some centres not stated) was tested, and the GI50 was inactive: 83.4 µM. `O=c1c2ccccc2nc(-c2ccc(Cl)cc2)n1O` was tested, and the GI50 was inactive: 30.1 µM. In the case of `c1cc(-c2cn3ccsc3n2)ccn1`, the GI50 is reported as inactive: > 100 µM. For `CC(C)CCc1c(Cl)nc(Cl)nc1Cl`, the GI50 was inactive: 17.3 µM. `C[C@@H](c1ccccc1)N1CO[C@@]2(C#Cc3ccc4c(c3)OCO4)CCC[C@@H]12` was tested, and the GI50 was inactive: 22.9 µM. With `COCn1cc(C2=C(C)C(=O)C(C)=C(C)C2=O)cn1` the GI50 was inactive: > 100 µM. `Cc1c(C#N)c(=O)[nH]c(=O)n1CCN1CCN(C(=O)NCCCCCCNC(=O)N2CCN(CCn3c(C)c(C#N)c(=O)[nH]c3=O)CC2)CC1` was tested, and the GI50 was inactive: > 100 µM. In the case of `Cc1ccc(/N=N/c2c(C)nn(-c3ccccc3)c2C)c(Br)c1`, the GI50 is reported as inactive: > 100 µM. For `COc1ccc([C@]23CCN4COC[C@@H]([C@H]42)C2(CC3)OCC(C)(C)CO2)cc1OC`, the GI50 was inactive: > 100 µM. `COc1cc(/C=C2\N=C(c3ccccc3)N(c3nc4ccccc4s3)C2=O)cc(OC)c1OC` was tested, and the GI50 was inactive: 31.3 µM. In the case of `C=C1C(=O)O[C@@H]2[C@H]1C[C@H](I)[C@@]1(C)CC[C@H](O1)[C@](C)(I)CCCC(C)[C@@H]2O` (some centres not stated), the GI50 is reported as inactive: 15.9 µM. In the case of `Cc1sc2nc3n(sc4nc5sc(C)c(C)c5c(=O)n43)c(=O)c2c1C`, the GI50 is reported as inactive: > 100 µM. For `O=C1NCCN1/N=C/c1c(Cl)n(-c2ccccc2)c2ccccc12`, the GI50 was inactive: 17.2 µM. With `N#CC(NNC(=O)c1ccccc1O)c1cccc(O)c1` (configuration not stated) the GI50 was inactive: 19.3 µM. For `CCOC(=O)C(c1ccsc1)P(=O)(OCC)OCC` (configuration not stated), the GI50 was inactive: 17.3 µM. `O=c1c2ccccc2nc2[nH][nH]c(=S)n12` was tested, and the GI50 was inactive: > 100 µM. For `Cc1c(F)c(N)c2c(=O)cc(-c3ccc(NC(=O)[C@@H](N)CCCCN)c(F)c3)oc2c1F`, the GI50 was inactive: 13.3 µM. For `C=CC(C)(C)c1c(OC)oc2ccc(OC)c(C)c2c1=O`, the GI50 was inactive: > 100 µM. For `Cc1ccc(NC(=O)CCc2nnc(N)o2)cc1`, the GI50 was inactive: > 100 µM. With `FC(F)(F)c1cccnc1Sc1nc2ccccc2s1` the GI50 was inactive: > 100 µM. With `CCOC(=O)C/C(N)=C(\C#N)C(=O)OCC` the GI50 was inactive: > 100 µM. `Cc1cn(C2CC(OC3CCCCO3)C(CO)O2)c(=O)[nH]c1=O` (configuration not stated) was tested, and the GI50 was inactive: > 100 µM. With `CCNc1c(C(=O)N(CC)CC)c(=O)[nH]c2ncccc12` the GI50 was inactive: > 100 µM. In the case of `CCOC(CNCCC(=O)OC)OCC`, the GI50 is reported as inactive: > 10 µM. For `O=C(O)CN1CCN(CC(=O)N2CCN(C(=O)OCc3ccccc3)CC2)CCN(CC(=O)O)CCN(CC(=O)N2CCN(C(=O)OCc3ccccc3)CC2)CC1`, the GI50 was inactive: > 100 µM. `CC(C)(C)NC(=O)[C@H]1CC[C@H]2[C@@H]3CC=C4NC(=O)CC[C@]4(C)[C@H]3CC[C@]12C` was tested, and the GI50 was inactive: > 100 µM. In the case of `COc1ccc(-n2c(=O)n(C)c(=O)n2-c2ccc(OC)cc2)cc1`, the GI50 is reported as inactive: > 100 µM. `CC1=C(C(=O)Nc2ccccc2)C(c2ccccc2)C(C(=O)Nc2ccccc2)=C(C)N1` was tested, and the GI50 was inactive: 95.9 µM. In the case of `CCOP(C)(=O)C(Nc1ccc(F)cc1)c1ccc(F)cc1` (configuration not stated), the GI50 is reported as inactive: > 100 µM. In the case of `COc1ccc(N2C(=O)[C@@H]3[C@H](C2=O)c2[nH]c4ccccc4c2C2CCC(C(C)(C)C)C[C@@H]23)cc1` (some centres not stated), the GI50 is reported as inactive: 34.4 µM. With `O=C(O)c1ccc([N+](=O)[O-])c2cc3cnccc3nc12` the GI50 was inactive: 36.6 µM. With `N#Cc1nc(COCCOCc2ccc(F)cc2)oc1N` the GI50 was inactive: > 100 µM. For `CC(=O)OCC1OC(OC2C(CSC3OC(COC(C)=O)C(OC(C)=O)C(OC(C)=O)C3OC(C)=O)OC(OC(C)=O)C(OC(C)=O)C2OC(C)=O)C(OC(C)=O)C(OC(C)=O)C1OC(C)=O` (configuration not stated), the GI50 was inactive: > 100 µM. For `Cc1ccc(S(=O)(=O)NC(=O)C#CCOC2CCCCO2)cc1` (configuration not stated), the GI50 was inactive: > 100 µM. In the case of `c1ccc2c(OCC3CO3)ccc(OCC3CO3)c2c1` (configuration not stated), the GI50 is reported as inactive: 10.6 µM. In the case of `N#CC1C(C#N)C2(c3ccccc3)C(c3ccccc3)=NN(c3ccccc3)CC12` (configuration not stated), the GI50 is reported as inactive: > 100 µM. For `CC1=COC(=O)c2ccccc2N1`, the GI50 was inactive: > 100 µM. For `O=C(Nc1cccc2ccccc12)c1cc2ccccc2oc1=O`, the GI50 was inactive: > 100 µM. For `CO[C@]1(c2ccc([N+](=O)[O-])cc2)Oc2ccccc2C(=O)[C@@]1(Nc1ccc(C=O)cc1)OC`, the GI50 was inactive: > 10 µM. For `CCOC(=O)C(NC(=O)c1cccc(Cl)c1)(Nc1cccc(C)c1)C(F)(F)F` (configuration not stated), the GI50 was inactive: 24 µM. For `CC(=O)OCC1OC(n2c3c(cc(C#N)c2=S)CCC3)C(OC(C)=O)C(OC(C)=O)C1OC(C)=O` (configuration not stated), the GI50 was inactive: > 100 µM. In the case of `O=C1CC(CC(=O)c2ccc(Br)cc2)C(O)=C1C(=O)c1ccc(Br)cc1` (configuration not stated), the GI50 is reported as inactive: > 100 µM. In the case of `Cc1ccc(NC(=O)CC2C(=O)Nc3ccccc3S2(=O)=O)cc1C` (configuration not stated), the GI50 is reported as inactive: > 100 µM. With `CC1(C(=O)Nc2ccc3cc4ccccc4cc3c2)CC2(C)CC(C)(C1)C(O)NC2=O` (configuration not stated) the GI50 was inactive: > 100 µM. In the case of `CCCCCCCCCCCc1cc(=O)c2c(O)cccc2o1`, the GI50 is reported as inactive: > 100 µM. For `CCCc1c(OC)c(=O)c2c(OC)cc(OC)c3c4c(OC)cc(OC)c5c(=O)c(OC)c(CCC)c(c1c23)c54`, the GI50 was inactive: 14.9 µM. With `Cc1cc2[nH]c3c(C#N)c4c(c(=O)n3c2cc1C)CCCC4` the GI50 was inactive: > 100 µM. In the case of `CSc1nc(NC2OCC(O)C(O)C2O)c(N)c(=O)[nH]1` (configuration not stated), the GI50 is reported as inactive: > 100 µM. For `CCOC(=O)C(=O)Nc1ccc(Cl)c(C(F)(F)F)c1`, the GI50 was inactive: > 100 µM. For `CC(=O)OC1(C)C(=O)OC1(C)C(C)=O` (configuration not stated), the GI50 was inactive: > 100 µM. With `Cc1cc(NS(=O)(=O)c2ccc(NC(=O)c3cccc4c(NNc5ccc(S(=O)(=O)N=C(N)N)cc5)c5ccccc5nc34)cc2)no1` the GI50 was inactive: 46.8 µM. `COc1cc([C@@H]2c3cc4c(cc3[C@@H](Nc3ccccc3C(=O)c3ccccc3)[C@H]3COC(=O)[C@H]23)OCO4)cc(OC)c1OC` was tested, and the GI50 was inactive: 1.97 µM. With `CCOC(=O)[C@H]1Nc2ccc(OC)cc2C2c3ccccc3CC21` (some centres not stated) the GI50 was inactive: > 100 µM. For `COC(=O)[C@H](Cc1c[nH]c2ccccc12)NP(=O)(O)OC[C@H]1O[C@@H](n2cc(C)c(=O)[nH]c2=O)C[C@@H]1N=[N+]=[N-]`, the GI50 was inactive: > 100 µM. For `CCN(CC)CCOC(c1ccccc1)c1ccccc1.CCOC(=O)Nc1ccc(S(=O)(=O)NCCCl)cc1.CCOC(=O)Nc1ccc(S(=O)(=O)NCCCl)cc1.Nc1ccc(C(=O)O)c(O)c1`, the GI50 was inactive: > 100 µM. In the case of `CCOP(=O)(C/C(O)=C1\C(=O)C(CCCNC(=O)OC(C)(C)C)N(Cc2ccc(OC)c(OC)c2)C1=O)OCC` (configuration not stated), the GI50 is reported as inactive: > 100 µM. With `COC(=O)[C@@]12C3=NO[C@]1(C(=O)OC)C(O[Si](C)(C)C(C)(C)C)[C@H]1OC(C)(C)O[C@H]1[C@@H]2C(OCc1ccccc1)CC3` (some centres not stated) the GI50 was inactive: 43 µM. In the case of `COC(=O)C1=C(O)C(C(=O)OC)[C@@]2(O)[C@@H](C(=O)OC)C(c3ccc(OC(=O)/C=C/c4ccccc4)cc3)C[C@@H]1[C@@H]2C(=O)OC` (some centres not stated), the GI50 is reported as inactive: 13.3 µM. `C=CC1(C)CCC2=C(CCC3C(C)(C(=O)OC)CCCC23C)C1=O` (configuration not stated) was tested, and the GI50 was inactive: 22 µM. In the case of `COC(=O)c1cnc(Cl)cn1`, the GI50 is reported as inactive: 30.1 µM. With `C=CCOn1c(C=C)nc2ccc(C)cc21` the GI50 was inactive: 18.6 µM. `O=C1c2scc(-c3ccc(F)cc3)c2-n2cccc21` was tested, and the GI50 was inactive: 48.9 µM. For `COc1cccc(/C=C2\CCC(CCN(C)C)(C3=CCCC3)C2=O)c1` (configuration not stated), the GI50 was inactive: 16.6 µM. For `Oc1cc(-c2ccc(F)cc2)nc2ncc(Cl)cc12`, the GI50 was inactive: 25.1 µM.
